Values joined by “and” are separate entries in the source; they are usually repeats but may differ in a detail not shown here. Identical values can stand only once. The whole screen tested about 380,000 compounds, of which about 4,000 (1.1%) were called active. The shares of active, inactive and inconclusive entries below differ from those in the screen. Calls come from the whole dose curve; as a rule, active = well fitted activation curve with a large enough effect; inconclusive = small, poorly fitted or top-dose-only effect; inactive = no such curve, though single readings can be large or run the other way. A potency beside an inconclusive call is a rough fit, not a confirmed value.
Experiment: qHTS Assay to Identify Small Molecule Activators of BRCA1 Expression; note: nearly all actives have a fitted effect of over 80% in size
Conditions: MCF7-BRCA1-FFLuc reporter, luminescence, 48 h; activation: at 46.1 µM (top of the series), scaled: vehicle 0%, 10 µM genistein 100% unless noted
Outline: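 Reporter cells (MCF7, BRCA1 promoter-firefly luciferase) received library compounds across a concentration series for 48 h. End-point luminescence was measured and concentration-effect curves derived after normalization.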
Potency is the fitted concentration of half-maximal effect; tags give direction and shape of the fitted curve.

Row | SMILES | activation | Potency
1 | O=c1cnn(Cc2ccc(Cl)c(Cl)c2)c2ccccc12 | inactive: -38.7% | 
2 | CC(C)(C)C1CCc2c(sc3c2C(=O)NC(c2ccco2)N3)C1 (stereo not drawn) |  | inconclusive: 2.51 µM [activator, full curve, poor fit]
3 | O=C(CSc1ccccn1)c1ccc(F)cc1 |  | inconclusive: 11.2 µM [activator, partial curve, poor fit]
4 | COc1ccc(C2=CC(c3cc(OC)c(OC)c(OC)c3)NC(=S)N2)cc1 (stereo not drawn) | inactive: -40% | 
5 | c1ccc2sc(Nc3nc4cc5c(cc4s3)OCO5)nc2c1 |  | inconclusive: 3.16 µM [activator, partial curve, poor fit]
6 | COc1cccc(NC(=O)c2oc3ccccc3c2NC(=O)COc2ccccc2C)c1 | inactive: -10.6% | 
7 | CN(C)/N=C/C=C1\CCC/C(=C/c2cccs2)C1=O |  | inconclusive: 3.16 µM [activator, full curve, poor fit]
8 | CC(=O)CCc1ccc(OCCCOc2cccc3cccnc23)cc1 |  | inconclusive: 12.6 µM [activator, single point]
9 | N#Cc1ccccc1COC(=O)c1cc(=O)c2ccccc2o1 | inactive: -28.2% | 
10 | C=C(C)COc1ccc(-c2ncncc2-c2ccc(Br)cc2)c(O)c1 | inactive: -35.8% | 
11 | O=C(CCCc1ccccc1)N1CCN(C2CCCCC2)CC1 |  | active: 5.01 µM
12 | COc1ccc(C(CC(=O)Nc2nccs2)C(C)C)cc1 (stereo not drawn) | inactive: -11.8% | 
13 | CCOC(=O)c1sc(NC(=O)c2ccccc2)cc1C | inconclusive: 31.1% [activator] | 
14 | CCOC(=O)c1csc(NC(=O)C2=COCCO2)n1 |  | inconclusive: 1.26 µM [activator, full curve, poor fit]
15 | Cc1cc(C)n2nc(SCC(=O)Nc3ccc(O)cc3)nc2n1 |  | inactive
16 | Cc1ccc2c3c([nH]c2c1C)-c1nonc1CC3 |  | active: 8.91 µM
17 | Cc1ccc(-c2cc(C(=O)N3CCN(c4ncccn4)CC3)c3ccccc3n2)cc1 |  | inconclusive: 1.26 µM [activator, full curve, poor fit]
18 | COc1ccccc1N1CCN(C2=Nc3cccc4cccc2c34)CC1 |  | inconclusive: 3.16 µM [activator, full curve, poor fit]
19 | COc1ccc(OCc2cc(C(=O)N(C)Cc3cnccn3)no2)c(Cl)c1 |  | active: 8.91 µM
20 | CC(=O)c1sc(Nc2ccc3c(c2)OCO3)nc1C |  | inconclusive: 2.51 µM [activator, full curve, poor fit]
21 | Cc1ccn2cc(-c3nonc3C)cc2c1 |  | inconclusive: 11.2 µM [activator, partial curve, poor fit]
22 | Cc1[nH]c2ccccc2c1C(=O)CSc1ccc(Cl)cc1 | inactive: 40.8% | 
23 | CCCCNc1c(-c2ccc(SC3CCCCC3)cc2)nc2ccccn12 |  | inconclusive: 3.55 µM [activator, full curve, poor fit] and inconclusive: 2.51 µM [activator, partial curve, poor fit]
24 | O=C(NC1CC1)c1cc2cc3ccccc3nc2s1 |  | active: 5.01 µM
25 | CC(=O)Cn1cnc2sc(-c3ccccc3)cc2c1=O |  | inconclusive: 2.24 µM [activator, full curve, poor fit]

Row | SMILES | activation | Potency
26 | CCc1ccc(NC(=O)N(C2CCCCC2)C(C)c2cccnc2)cc1 (stereo not drawn) |  | inconclusive: 11.2 µM [activator, partial curve, poor fit]
27 | Cc1cc(C)cc(C(=O)Nc2ccc(N3CCCC3)cc2)c1 |  | inconclusive: 2 µM [activator, full curve, poor fit]
28 | O=C(Nc1ccc2sccc2c1)c1ccc(Cl)s1 |  | inconclusive: 2.82 µM [activator, full curve, poor fit]
29 | O=C(NCCc1c[nH]c2ccccc12)c1ccc2c(c1)OCO2 |  | inconclusive: 1.41 µM [activator, full curve, poor fit]
30 | O=C(O)C1CCC(c2ccc(-c3ccccc3)cc2)CC1 (stereo not drawn) |  | inconclusive: 6.31 µM [activator, partial curve, poor fit]
31 | Cn1c(CN2CCCC2)nc2cc(NC(=O)Nc3ccccc3)ccc21 |  | active: 11.2 µM
32 | COc1ccc(NS(=O)(=O)c2cn(C)cn2)cc1Cl | inactive: 14% | 
33 | Cc1ccc(Cn2ccc(NC(=O)c3nn(C)cc3Cl)n2)cc1 |  | inconclusive: 22.4 µM [activator, single point]
34 | Clc1ccc2nc(CSc3nc4ccccc4o3)cn2c1 |  | inconclusive: 1.58 µM [activator, full curve, poor fit]
35 | CC(=O)NC(=S)NNC(=O)C(c1ccccc1)c1ccccc1 | inactive: -40.3% | 
36 | COc1ccc(CN(C(=O)c2nsc(Cl)c2Cl)C(C(=O)NC2CCCC2)c2ccc(C)cc2)cc1 (stereo not drawn) | inactive: -65.2% | 
37 | O=C(CNS(=O)(=O)c1ccccc1)N1CCc2ccccc2C1 |  | active: 11.2 µM
38 | NC(=O)c1ccccc1NC(=O)CCc1ccccc1 |  | active: 11.2 µM
39 | c1ccc(-c2cc3ncccc3cn2)cc1 |  | inconclusive: 14.1 µM [activator, partial curve, poor fit]
40 | CC(C)C(=O)N/N=C/c1ccc(OCc2ccccc2)cc1 |  | inconclusive: 17.8 µM [activator, partial curve, poor fit]
41 | Cc1ccc(N/N=C/c2cccnc2)cc1 |  | inconclusive: 7.08 µM [activator, partial curve, poor fit]
42 | Cc1ccc(-c2noc(C3CCCN(C(=O)c4cccc(Cl)c4)C3)n2)o1 (stereo not drawn) |  | inconclusive: 17.8 µM [activator, partial curve, poor fit]
43 | COc1ccc(CC(=O)Nc2cc3oc4ccccc4c3cc2OC)cc1 |  | inconclusive: 10 µM [activator, partial curve, poor fit]
44 | CC1CCCN(C(=O)Cn2nnc(-c3ccccc3F)n2)C1 (stereo not drawn) |  | inconclusive: 12.6 µM [activator, partial curve, poor fit]
45 | OC1CCCCC1Sc1nc2ccccc2s1 (stereo not drawn) |  | inconclusive: 11.2 µM [activator, partial curve, poor fit]
46 | COc1ccc(CNc2nc(-c3ccccc3)nn2C(=O)c2ccccc2OC)cc1 | inactive: 65.4% | 
47 | N#Cc1ccc(NC(=O)CNc2cc(S(=O)(=O)N3CCOCC3)ccc2NCC2CCCO2)cc1 (stereo not drawn) | inactive: -27.9% | 
48 | CN(C)c1ccc(NC(=S)c2ccccn2)cc1 | inconclusive: -67.4% [activator] | 
49 | CC1=Nn2c(nc3sc4c(c3c2=O)CCCC4)SC1 |  | active: 7.08 µM
50 | Cc1ccn2cc(C(=O)Nc3nnc(C)s3)nc2c1 |  | inconclusive: 2 µM [activator, full curve, poor fit]

Row | SMILES | activation | Potency
51 | O=C(NCCSCc1c(F)cccc1Cl)Nc1ccccc1 |  | inconclusive: 11.2 µM [activator, partial curve, poor fit]
52 | CN(C)c1ccc(/C=N/n2cnn(Cc3ccccc3Cl)c2=S)cc1 | inactive: -2.52% | 
53 | CN1CCN(/N=C/c2cccc(Cl)c2Cl)CC1 |  | inconclusive: 17.8 µM [activator, partial curve, poor fit]
54 | Cc1ccc(OCc2cn3cccnc3n2)cc1 |  | inconclusive: 12.6 µM [activator, partial curve, poor fit]
55 | CCC(=O)n1nc(-c2ccco2)nc1SCc1ccccc1 |  | inconclusive: 15.8 µM [activator, single point]
56 | CC(C)c1ccc(/C=C2\SC(=O)N(CC(=O)NC3CCS(=O)(=O)C3)C2=O)cc1 (stereo not drawn) |  | inconclusive: 31.6 µM [activator, single point]
57 | N#Cc1c(/N=C/c2cc3ccccc3s2)sc2c1CCC2 |  | inconclusive: 3.98 µM [activator, partial curve, poor fit]
58 | O=C(NCCC1=CCCCC1)c1ccc([N+](=O)[O-])cc1 |  | inconclusive: 0.562 µM [activator, full curve, poor fit]
59 | Fc1ccc(NC2=NCCCCC2)cc1 | inactive: -5.69% | 
60 | Nc1cccc(Cl)c1N1CCOCC1 | inactive: -35.5% | 
61 | CN(C)N1C(N)=C(C#N)C(c2cccc3ccccc23)C2=C1CC(c1ccccc1)CC2=O (stereo not drawn) | inactive: -77.3% | 
62 | COc1cccc(-c2nnc(-c3ccccc3[N+](=O)[O-])o2)c1 |  | inconclusive: 2.82 µM [activator, full curve, poor fit]
63 | CC(C)c1ccc(O)c(NC(=S)NC(=O)c2ccc3c(c2)OCO3)c1 |  | inconclusive: 2.51 µM [activator, full curve, poor fit]
64 | CCCC(=O)Nc1nnc(-c2ccc3c(c2)OCCO3)o1 |  | active: 6.31 µM
65 | c1ccc(-c2nnc(SCc3cn4ccsc4n3)o2)cc1 |  | inconclusive: 10 µM [activator, partial curve, poor fit]
66 | O=C(c1ccc(CSc2ccc(Cl)cc2)cc1)N1CCCC1 |  | active: 10 µM
67 | CCOC(=O)/C(C#N)=C/N=c1ccc(C)cn1C |  | inconclusive: 10 µM [activator, partial curve, poor fit]
68 | COc1ccccc1CC(=O)O/N=C(\N)c1ccccn1 |  | inconclusive: 10 µM [activator, partial curve, poor fit]
69 | COc1ccccc1CNS(=O)(=O)c1cc2c3c(c1)C(C)C(=O)N3CCC2 (stereo not drawn) | inactive: -28.9% | 
70 | CC1CCCCN1C(=O)c1cc(-c2ccc3c(c2)OCO3)on1 (stereo not drawn) |  | inconclusive: 0.631 µM [activator, full curve, poor fit]
71 | CCCCN=C1NN=C(c2ccc(C)c(C)c2)CS1 |  | inconclusive: 12.6 µM [activator, partial curve, poor fit]
72 | O=c1c2c(nc3cc(-c4ccc(Br)cc4)[nH]n13)CCCC2 | inconclusive: 167% [activator] | 
73 | CCOC(=O)c1ccc(N/C=C/C(=O)c2ccco2)cc1 |  | inconclusive: 1.78 µM [activator, full curve, poor fit]

— PubChem BioAssay AID624202 (National Center for Advancing Translational Sciences (NCATS), 2012)
